The text below walks through data of the supplement of paper PMC10126150.

Values marked as one replicate rest on one cluster of the flow cell; about a third of the high ones do not repeat.

This data set has as its system ATP. Put plainly: switch fluorescence ratio, 500 uM ATP over buffer (Cy3 cluster intensity, sum of 5 cycles each) (fold (ratio)); higher = stronger signal-on switching upon ATP binding; sequences stand for … in TCGTCGGCAGCGTCAGATGTGTATAAGAGACAGTTTTTTTTTTTTTTTTTTTTTTTTT…TC. As to conditions: aptamer strand: ATP DNA aptamer (quencher-CACCTGGGGGAGTATTGCGGAGGAAGG + anchor), 100 nM annealed; ATP concentration: 500 uM; one replicate. Summed up:
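Imaging in selection buffer was followed by imaging after 15 min with 500 uM ATP at 22 °C, for Cy3-labelled switching-strand clusters annealed to 100 nM quencher-labelled ATP aptamer on a modified Illumina MiSeq flow-cell. Five of these buffer/ATP cycles ran, separated by NaOH stripping and re-annealing. The fluorescence ratio per cluster is summed target-cycle over summed buffer-cycle Cy3 intensity, averaged per switch-domain sequence; clusters outside 100-1000 RFU were removed.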
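Also: ATP exposure 15 min at 22 °C before imaging.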

AAAGAATGAA: the switch fluorescence ratio was determined as 1.
For the sequence GAGCAGTGGG, the switch fluorescence ratio is 1.01.
In the case of TACCTACGCG, the switch fluorescence ratio was 1.42.
As to TGTACTTTGC, the switch fluorescence ratio came to 1.08.
For TTCCATTCGT the value was 0.973; for AACATGGTTA, 1.05; for AGCCACGACG, 1.03.
As to TTGTTTCGCG, the switch fluorescence ratio is 0.943.
Regarding TTACATCGAA, the switch fluorescence ratio came to 0.976.
Consider CTACAGGGCA, for which the switch fluorescence ratio was 1.04.
On to AGACGTGGGA, for which the switch fluorescence ratio is 0.961.
As to TACTAAACAG, the switch fluorescence ratio amounted to 1.06.
For ACTACCCTCT the value was 1.13; for TGTTCCCTTT, 0.988; for CAAATGTTAG, 1.01.
In the case of GGCGGATCGT, the switch fluorescence ratio stood at 0.996.
For GGTAAAGGTG the value was 3.43.
Regarding TCTCCACGTT, the switch fluorescence ratio came out at 1.06.
Regarding ACTAGGAT, the switch fluorescence ratio was determined as 0.996.
For ATGTTTGGTC the value was 0.987; for ATGTTACTAT, 1.
As for GTCGTGATTA, the switch fluorescence ratio amounted to 0.97.
On to ATTGTCGAGC, for which the switch fluorescence ratio came out at 1.02.
For GTAAATCATT, the switch fluorescence ratio came to 0.967.
Consider GTTTGACCGG, for which the switch fluorescence ratio was found to be 1.02.
Take CGCGGAGACC: the switch fluorescence ratio is 1.05.
Regarding TTGCGCCAGC, the switch fluorescence ratio amounted to 1.05.
As to GACGGGTCGT, the switch fluorescence ratio was determined as 0.978.
For TGCGGGCAAA, the switch fluorescence ratio amounted to 0.978.
Take CGGGTTGCT: the switch fluorescence ratio is 1.01.
On to CTGTATATGC, for which the switch fluorescence ratio was found to be 1.75.
For GCGTTTGACA, the switch fluorescence ratio came out at 0.996.
The same measure for ACTCGCGTTC: 1.81; for TCGTATAGAT: 0.948.
For ACCCACATTT the value was 1.22.
As for CAGGACTACC, the switch fluorescence ratio is 1.05.
For the sequence CTATTGCCAA, the switch fluorescence ratio is 0.948.
As for CGGGGTCAAG, the switch fluorescence ratio is 0.986.
In the case of TAGGATCAAG, the switch fluorescence ratio is 1.
As for ACTATACGTC, the switch fluorescence ratio stood at 1.56.
Take AGGTTTGTC: the switch fluorescence ratio came out at 1.05.
With GTTTCTGGGC, the switch fluorescence ratio turned out to be 1.02.
As for TTGTATCCCC, the switch fluorescence ratio was found to be 1.02.
The same measure for TGCACCGGGA: 1; for TCGATTTTTA: 0.947.
Take GTCGTACGGT: the switch fluorescence ratio turned out to be 0.976.
As for AATCGTACCC, the switch fluorescence ratio amounted to 1.14.
As to CAGTGTATAG, the switch fluorescence ratio turned out to be 0.963.
Take AATGTCTATA: the switch fluorescence ratio stood at 1.02.
The same measure for CACGCTAAT: 1.39; for GCGCGAGTTC: 1.05; for AATGAGGT: 1.04.
On to ATGTAGAGAA, for which the switch fluorescence ratio is 1.02.
As for TCTACATAT, the switch fluorescence ratio came out at 1.01.
Consider AATTAAAGTG, for which the switch fluorescence ratio is 1.03.
As to GGGATGGCGC, the switch fluorescence ratio was 1.01.
Turning to GGCTACCCGT, the switch fluorescence ratio amounted to 1.02.
Regarding CTCTGGACT, the switch fluorescence ratio amounted to 1.08.
Regarding ATCGGAG, the switch fluorescence ratio worked out at 1.05.
In the case of CAATGATATG, the switch fluorescence ratio was determined as 0.995.
For the sequence TCACTGGGCA, the switch fluorescence ratio was determined as 1.02.
With CAGCCGTAG, the switch fluorescence ratio was 1.
ACGGCCAGGT: the switch fluorescence ratio came out at 1.82.
On to CGCCGGGCAA, for which the switch fluorescence ratio is 1.19.
The same measure for GGGAGGTTAC: 1.03.
Take AATGTGCTTT: the switch fluorescence ratio was determined as 1.05.
The same measure for CCTTTAGACC: 1.03; for GCATTCGGCG: 0.978; for GGTGAAGATG: 0.928.
As to TCGGGGCCCC, the switch fluorescence ratio amounted to 1.6.
Consider CGAAAAGACA, for which the switch fluorescence ratio worked out at 1.01.
Consider TAGTCCTAAT, for which the switch fluorescence ratio was determined as 0.986.
Take TAAAGGGCCT: the switch fluorescence ratio stood at 1.02.
With GAGTACGTGA, the switch fluorescence ratio turned out to be 1.14.
ATTAGCGATT: the switch fluorescence ratio was 1.06.
The same measure for TTCGAGCTGG: 1.01; for CGTGCGATCC: 1.47.
In the case of TTAATTGCTA, the switch fluorescence ratio was 1.03.
ACACAGGGCT: the switch fluorescence ratio was 1.04.
